Experimental data taken from PMC4336329 (PLoS ONE, 2015).
In all, about 310,000 compounds went through this assay and about 14,000 (4.5%) showed an effect of 50% or more. The effect is printed as a negative number. The list shows a part of the results.

Each compound was assayed against human ether-à-go-go-related gene (hERG) potassium channel (human, UniProt Q12809) (assay: primary screen, population patch clamp on CHO cells stably expressing hERG).
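Further: peak tail current of the secondary pulse compared with the same well before compound.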

Chain of human ether-à-go-go-related gene (hERG) potassium channel (Q12809 whole entry, looked up): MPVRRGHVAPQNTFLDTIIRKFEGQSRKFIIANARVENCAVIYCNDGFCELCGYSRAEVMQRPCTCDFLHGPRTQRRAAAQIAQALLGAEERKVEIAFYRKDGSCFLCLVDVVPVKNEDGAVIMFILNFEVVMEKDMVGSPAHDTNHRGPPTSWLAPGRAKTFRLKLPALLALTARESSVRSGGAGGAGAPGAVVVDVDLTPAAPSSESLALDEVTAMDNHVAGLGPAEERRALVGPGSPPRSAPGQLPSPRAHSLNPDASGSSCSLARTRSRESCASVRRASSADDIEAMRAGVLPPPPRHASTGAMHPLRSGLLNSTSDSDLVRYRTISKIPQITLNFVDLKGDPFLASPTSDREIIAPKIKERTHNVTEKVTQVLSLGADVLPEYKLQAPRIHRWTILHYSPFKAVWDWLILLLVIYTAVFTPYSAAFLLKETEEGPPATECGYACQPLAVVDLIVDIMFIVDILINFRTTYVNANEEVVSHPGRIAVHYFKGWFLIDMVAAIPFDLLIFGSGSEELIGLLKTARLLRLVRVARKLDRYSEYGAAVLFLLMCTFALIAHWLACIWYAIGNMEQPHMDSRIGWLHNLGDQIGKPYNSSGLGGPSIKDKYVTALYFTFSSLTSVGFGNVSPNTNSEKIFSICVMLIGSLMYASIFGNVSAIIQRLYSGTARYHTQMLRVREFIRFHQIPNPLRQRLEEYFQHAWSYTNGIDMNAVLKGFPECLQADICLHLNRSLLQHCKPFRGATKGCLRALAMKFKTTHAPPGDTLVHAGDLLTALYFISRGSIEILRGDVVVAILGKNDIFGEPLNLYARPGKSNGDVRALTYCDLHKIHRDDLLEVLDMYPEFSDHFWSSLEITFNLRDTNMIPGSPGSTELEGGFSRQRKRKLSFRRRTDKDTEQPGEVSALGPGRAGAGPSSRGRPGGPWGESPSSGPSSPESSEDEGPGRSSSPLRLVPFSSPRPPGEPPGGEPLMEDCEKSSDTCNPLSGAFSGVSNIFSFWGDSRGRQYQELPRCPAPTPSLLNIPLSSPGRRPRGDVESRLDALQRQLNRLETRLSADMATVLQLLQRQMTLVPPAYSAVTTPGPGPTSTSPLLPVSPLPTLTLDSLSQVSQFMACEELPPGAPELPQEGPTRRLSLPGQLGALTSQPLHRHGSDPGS

Compared with O=C(Nc1nc(-c2ccccc2)cs1)c1cccc([N+](=O)[O-])c1C(=O)O, Cc1ccc(C(=O)Nc2nc(COc3ccccc3)cs2)s1 is lower in “hERG current change (%, negative = inhibition) at 10uM” value: 9.32% for the first, 8.48% for the second.

First: Cc1c(-c2ccccc2)nc(N)c(C#N)c1-c1ccco1
Second: COC(=O)c1c(N)c(C#N)c(C)n1-c1ccccc1
The “hERG current change (%, negative = inhibition) at 10uM” value of the first is higher: 12.6% for the first, 7.73% for the second.

Going from NC(=O)COC(=O)[C@@H]1CC(O)CN1S(=O)(=O)c1ccc2c(c1)OCCO2 (stereo partly drawn) to CN(CCOc1ccc(Cl)cc1)C(=O)c1ccc(S(=O)(=O)N2CCOCC2)cc1, the “hERG current change (%, negative = inhibition) at 10uM” value falls from 13.1% to -74.9%.

Compared with Cc1ccccc1N(C(=O)c1snc(C(N)=O)c1N)C(C(=O)NCC1CCCO1)c1ccc(N(C)C)cc1 (stereo not drawn), Cc1ccc(N(C(=O)CNC(=O)c2ccco2)C(C(=O)NCC2CCCO2)c2ccccc2)cc1C (stereo not drawn) is lower in “hERG current change (%, negative = inhibition) at 10uM” value: 13.8% for the first, -7.14% for the second.

Going from O=C(COc1ncnc2ccc(Br)cc12)NCc1ccco1 to CCC(OC(=O)c1ccco1)C(=O)NCc1ccc(OC)cc1 (stereo not drawn), the “hERG current change (%, negative = inhibition) at 10uM” value falls from 18% to -8.67%.

Compared with Cn1cccc1Cc1nnc(SCC(=O)NCC2CCCO2)n1CCc1ccccc1 (stereo not drawn), COC(=O)[C@H]1[C@H](CCc2ccccc2)NC(=O)N(Cc2ccccc2)[C@@H]1C is lower in “hERG current change (%, negative = inhibition) at 10uM” value: -10.8% for the first, -13.5% for the second.

Going from CCCc1nc2ccccc2c(C(=O)OCC(=O)c2ccc3c(c2)NC(=O)CO3)c1CC to CCOC(=O)CNC(=O)c1nn(-c2cccc(OC)c2)c(=O)c2ccccc12, the “hERG current change (%, negative = inhibition) at 10uM” value falls from -2.97% to -22.9%.

Compared with CC(=O)Nc1nonc1NC(=O)CSc1ncn[nH]1, Cc1nc(NC(=O)CN2CCCCC2)sc1C(=O)N(C)C is higher in “hERG current change (%, negative = inhibition) at 10uM” value: -11.3% for the first, 1.37% for the second.

Going from NC(=O)c1cc([N+](=O)[O-])ccc1NCc1ccc(C(=O)O)cc1 to C/C(=N\NC(=O)c1ccc(C)cc1C)c1ccc(-n2ccnc2)cc1, the “hERG current change (%, negative = inhibition) at 10uM” value falls from 16.7% to -16.6%.

First: O=P(O)(O)c1ccccc1OCCOCCOCCOCCOc1ccccc1P(=O)(O)O
Second: Cc1ccccc1OCCN1C(=O)c2ccccc2C1=O
The “hERG current change (%, negative = inhibition) at 10uM” value of the first is lower: -3.72% for the first, 0.172% for the second.

Compared with CCOC(=O)C1(CCCc2ccccc2)CCN(Cc2nccn2CC)CC1, CCOP(=O)(OCC)/C(=C/N1CCCCC1)NC(=O)c1ccccc1 is higher in “hERG current change (%, negative = inhibition) at 10uM” value: -74% for the first, 19.5% for the second.

Compared with O=C(c1cccc2ccccc12)N1CCC(N2CCN(c3ccccc3)CC2)CC1, O=C(NCC(=O)N1CCN(C(c2ccccc2)c2ccccc2)CC1)c1ccc(Br)o1 is higher in “hERG current change (%, negative = inhibition) at 10uM” value: -22.7% for the first, 8.38% for the second.

Going from Cc1cc(Cn2nc(C(=O)NCc3cccc(Br)c3)cc2-c2ccccc2)on1 to COc1ccc(OCc2cc(C(=O)NC(C)Cc3cccnc3)no2)c(Cl)c1 (stereo not drawn), the “hERG current change (%, negative = inhibition) at 10uM” value falls from -20.3% to -36.3%.

First: Cc1cc(C)cc(Oc2ccc(C(F)(F)F)cc2C#N)c1
Second: Cc1ccc(C)c(NC(=O)c2cc[n+](C)cc2)c1.[I-]
The “hERG current change (%, negative = inhibition) at 10uM” value of the first is lower: 7.94% for the first, 15.7% for the second.

First: O=C(CCS(=O)(=O)c1ccccc1)Nc1ccc(Cl)cn1
Second: O=S(=O)(N/N=C/c1ccc(OC2CSC2)cc1)c1ccccc1
The “hERG current change (%, negative = inhibition) at 10uM” value of the first is lower: -3.42% for the first, 8.4% for the second.

First: COc1ccc(C(CNC(=O)COc2ccc(-c3ccccc3)cc2)N2CCOCC2)cc1 (stereo not drawn)
Second: COc1ccc(N2CCN(S(=O)(=O)c3ccc(-c4cnc(C5CC5)o4)cc3)CC2)cc1
The “hERG current change (%, negative = inhibition) at 10uM” value of the first is lower: -9.9% for the first, 17.6% for the second.

Compared with O=C1NC2CCc3nc4ccccc4c(=O)n3C2=Nc2ccccc21 (stereo not drawn), O=C1Nc2ccccc2Nc2ncccc21 is higher in “hERG current change (%, negative = inhibition) at 10uM” value: -24.4% for the first, 3.26% for the second.

Compared with Cn1c(CSCc2ccccc2)n[nH]c1=S, N#CC(C(=O)c1ccco1)c1ccccn1 (stereo not drawn) is lower in “hERG current change (%, negative = inhibition) at 10uM” value: 23.8% for the first, 13.6% for the second.

Going from O=C(CN1CCc2ccccc21)NC(c1ccccc1)c1ccccc1 to O=C(NN1c2ccccc2CCc2ccccc21)c1ccccc1Br, the “hERG current change (%, negative = inhibition) at 10uM” value rises from -17.5% to 12.9%.

First: Brc1ccc(-c2nnc(-c3ccccc3Br)o2)cc1
Second: CC(=O)N(c1ccc(Cl)cc1)c1c[nH]c2ccccc12
The “hERG current change (%, negative = inhibition) at 10uM” value of the first is higher: 7.65% for the first, -16.6% for the second.

Going from CNC(=S)N1CCN(c2nc(-c3cccc(OC)c3)cs2)CC1 to CC1(C)Cc2cccc(OCC(=O)N3CCN(c4cccc(Cl)c4)CC3)c2O1, the “hERG current change (%, negative = inhibition) at 10uM” value rises from -12.1% to -4.1%.

Compared with COC(=O)C1CN(C(=O)COc2cc(C)c(Cl)c(C)c2)c2ccccc2O1 (stereo not drawn), CCN(CC)S(=O)(=O)c1ccc2oc(C(=O)Nc3ccc(OC)cc3OC)c(C)c2c1 is lower in “hERG current change (%, negative = inhibition) at 10uM” value: 18.9% for the first, 4.93% for the second.

Compared with CCOC(=O)C1=C(CC)OC(N)=C(C#N)C1c1ccsc1 (stereo not drawn), CCOC(=O)NNC(=O)c1ccc(Cl)cc1 is lower in “hERG current change (%, negative = inhibition) at 10uM” value: 1.69% for the first, -1.59% for the second.

First: CC(C)C[C@H](NC(=O)C1CCN(S(=O)(=O)c2ccccc2)CC1)C(=O)NCc1ccccn1
Second: CCOC(=O)N1CCC(NC(=O)C2CCN(S(=O)(=O)c3cnc[nH]3)CC2)CC1
The “hERG current change (%, negative = inhibition) at 10uM” value of the first is lower: 11.1% for the first, 13.6% for the second.

Going from Cn1nnnc1NCc1c(F)cccc1Cl to Fc1ccc(/C=N/Nc2nc(-c3cccnc3)nc3ccccc23)cc1, the “hERG current change (%, negative = inhibition) at 10uM” value falls from -7.76% to -25.1%.

Going from Clc1c(Cl)c(Cl)c2n[nH]nc2c1Cl to CC(C)CCc1c(O)nc(SCC(=O)N2CCCCCC2)[nH]c1=O, the “hERG current change (%, negative = inhibition) at 10uM” value falls from 26.5% to 6.23%.

Compared with C=CCc1cccc(/C=N/NC(=O)C(=O)Nc2ccc(C)cc2)c1O, CC(=O)c1ccc(NC2OC(C)C(O)C(O)C2O)cc1 (stereo not drawn) is lower in “hERG current change (%, negative = inhibition) at 10uM” value: 30.5% for the first, 14.5% for the second.

Compared with COC(=O)C(NC(=O)c1ccco1)(Nc1nc(C2CC2)cs1)C(F)(F)F (stereo not drawn), COC(=O)c1sccc1-n1cccc1C(=O)N1CCOCC1 is lower in “hERG current change (%, negative = inhibition) at 10uM” value: 11.7% for the first, -44.5% for the second.

For Cc1cc(C)c(NC(=O)C2CCCN2CCC(C)C)c(C)c1 (stereo not drawn), the “hERG current change (%, negative = inhibition) at 10uM” value was -11.5%.
